# According to the supplement of paper PMC9588766:
# Counter-ions that a name gives are not always drawn. ± gives the standard deviation of the averaged measurements. In all, about 2,000 compounds were measured (“cell viability relative to DMSO control (compound alone)”: median about 0.98, lowest 2% from about 0.23 on). Some of the results follow.
# Tested on: PDC-DUC18828
# Assay: cell viability relative to DMSO control (compound alone) (fraction); PDC-DUC18828 is a patient-derived cholangiocarcinoma cell line; higher = less growth inhibition
# Details: 1 µM; 72 h
# Protocol: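 Selleck Bioactive library screen in the patient-derived FGFR2-G3BP2 fusion-positive ICC cell line PDC-DUC18828 (500 cells/well). Each compound was tested at 1 uM alone, in triplicate, for 72 h. Viability was read by CellTiter-Glo and normalised to plate DMSO controls.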
row,Compound,cell viability
1,Cc1ccc(-n2nccn2)c(C(=O)N2CCN(c3nc4cc(Cl)ccc4o3)CC[C@H]2C)c1 [Suvorexant (MK-4305)],1.05 ± 0.06
2,CCCN1CCO[C@@H]2c3cc(O)ccc3OC[C@H]21,0.937 ± 0.033
3,CCCCCCCCCCCCCCCC[n+]1ccccc1 [Cetylpyridinium Chloride],0.707 ± 0.038
4,O=P1(N(CCCl)CCCl)NCCCO1 (stereo not drawn) [Cyclophosphamide Monohydrate],1.05 ± 0.046
5,c1ccc2c(c1)sc1ccccc12 [Dibenzothiophene],1.07 ± 0.037
6,COc1cc(C)[nH]c(=O)c1CNC(=O)c1c(C)n([C@H](C)C2CCOCC2)c2ccccc12,0.982 ± 0.025
7,CN1C(=O)CCS(=O)(=O)C1c1ccc(Cl)cc1 (stereo not drawn) [Chlormezanone],1.02 ± 0.07
8,CNCC(O)c1ccc(O)cc1 (stereo not drawn) [Synephrine HCl],1.01 ± 0.038
9,CNCC(O)c1ccc(O)cc1 (stereo not drawn) [Synephrine],1.02 ± 0.013
10,CCOc1ccccc1-n1c(C(C)N2CCN(C(=O)COc3ccc(Cl)cc3)CC2)nc2ccccc2c1=O (stereo not drawn) [Erastin],0.905 ± 0.037
11,CN1[C@@H]2CC[C@H]1C[C@@H](OC(=O)C(CO)c1ccccc1)C2 (stereo partly drawn) [Atropine],0.993 ± 0.02
12,C[C@]12CCC(=O)C(O)=C1CC[C@@H]1[C@@H]2CC[C@]2(C)C(=O)CC[C@@H]12 [Formestane],1.03 ± 0.065
13,N#C[C@H](O[C@@H]1O[C@H](C(=O)O)[C@@H](O)[C@H](O)[C@H]1O)c1ccccc1 [Laetrile],1.09 ± 0.03
14,COc1ccc(C(CN(C)C)C2(O)CCCCC2)cc1 (stereo not drawn) [Venlafaxine],1.08 ± 0.06
15,CCc1c(C(=O)C(N)=O)c2c(OCC(=O)O)cccc2n1Cc1ccccc1,1.02 ± 0.025
16,Cc1sc2c(c1C)C(c1ccc(Cl)cc1)=N[C@@H](CC(=O)Nc1ccc(O)cc1)c1nnc(C)n1-2,0.705 ± 0.04
17,C[C@@H]1[C@H](O)[C@@H](C)/C=C/C=C/CC/C=C/C=C/C=C/C=C/[C@H](O[C@H]2O[C@@H](C)[C@H](O)[C@@H](N)[C@H]2O)C[C@@H]2O[C@](O)(C[C@@H](O)[C@H](O)CC[C@@H](O)C[C@@H](O)C[C@@H](O)CC(=O)O[C@H]1C)C[C@H](O)[C@H]2C(=O)O [Nystatin (Fungicidin)],0.954 ± 0.056
18,CC(C)NCC(O)c1ccccc1Cl (stereo not drawn) [Clorprenaline HCl],1.02 ± 0.052
19,Cc1cc2c(C(C)C)c(O)c(O)c(C=O)c2c(O)c1-c1c(C)cc2c(C(C)C)c(O)c(O)c(C=O)c2c1O [Gossypol],0.856 ± 0.037
20,CN1CCN(c2nc3ccccc3nc2Cl)CC1,0.94 ± 0.065
21,CN(C)C(=O)Oc1ccc[n+](C)c1 [Pyridostigmine Bromide],0.954 ± 0.053
22,CCN(CC)C(=O)c1ccc(C2=CC3(CCNCC3)Oc3cccc(O)c32)cc1,0.966 ± 0.072
23,O=c1[nH]c2ccc(Cl)cc2c(N[C@@H]2CN3CCC2CC3)c1-c1nc2ccccc2[nH]1,0.948 ± 0.11
